# Results: the supplement of paper PMC8728848
# The other results are listed elsewhere or left out.
# B1: BDCA2 ex-domain (Homo sapiens) (protein)
# chain: MASHHHHHHIEGRGLNDIFEAQKIEWHESLVPRGSCPTPWTSFQSSCYFISTGMQSWTKSQKNCSVMGADLVVINTREEQDFIIQNLKRNSSYFLGLSDPGGRRHWQWVDQTPYNENVTFWHSGEPNNLDERCAIINFRSSEEWGWNDIHCHVPQKSICKMKKIY
# Tests used:
# Assay in all cases: glycan array binding signal (z-score within array); higher = stronger binding
# Settings in all cases: glycan notation: IUPAC condensed, linker removed
# Fuc(a1-2)Gal = biological target: Fuc(a1-2)Gal
# Summary of the method: (§1)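 Negative Z-scores can be read as non-binding. The Z-score is calculated within each array and then averaged across arrays of one protein sequence at different concentrations or buffers and across linkers. Arrays, 3228 in all, were curated from the Consortium for Functional Glycomics database and kept only where the protein sequence was available.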
# Fuc(a1-2)Gal(b1-3)GalNAc = biological target: Fuc(a1-2)Gal(b1-3)GalNAc
# Summary of the method: as §1
# [1] = biological target: Fuc(a1-2)Gal(b1-3)GalNAc(b1-3)Gal
# Summary of the method: as §1
# [2] = biological target: Fuc(a1-2)Gal(b1-3)GalNAc(b1-3)Gal(a1-4)Gal(b1-4)Glc
# Summary of the method: as §1
# [3] = biological target: Fuc(a1-2)Gal(b1-3)GalNAc(b1-4)[Neu5Ac(a2-3)]Gal(b1-4)Glc
# Summary of the method: as §1
# Fuc(a1-2)Gal(b1-3)GlcNAc = biological target: Fuc(a1-2)Gal(b1-3)GlcNAc
# Summary of the method: as §1
# [4] = biological target: Fuc(a1-2)Gal(b1-3)GlcNAc(b1-3)Gal(b1-4)Glc
# Summary of the method: as §1
# [5] = biological target: Fuc(a1-2)Gal(b1-3)[Fuc(a1-4)]GlcNAc
# Summary of the method: as §1
# Fuc(a1-2)Gal(b1-4)Glc = biological target: Fuc(a1-2)Gal(b1-4)Glc
# Summary of the method: as §1
# Fuc(a1-2)Gal(b1-4)Glc6S = biological target: Fuc(a1-2)Gal(b1-4)Glc6S
# Summary of the method: as §1
# Fuc(a1-2)Gal(b1-4)GlcNAc = biological target: Fuc(a1-2)Gal(b1-4)GlcNAc
# Summary of the method: as §1
# [6] = biological target: Fuc(a1-2)Gal(b1-4)GlcNAc(b1-3)Gal(b1-4)GlcNAc
# Summary of the method: as §1
# [7] = biological target: Fuc(a1-2)Gal(b1-4)GlcNAc(b1-3)Gal(b1-4)GlcNAc(b1-3)Gal(b1-4)GlcNAc
# Summary of the method: as §1
# [8] = biological target: Fuc(a1-2)Gal(b1-4)GlcNAc6S
# Summary of the method: as §1
# [9] = biological target: Fuc(a1-2)Gal(b1-4)[Fuc(a1-3)]GlcNAc
# Summary of the method: as §1
# [10] = biological target: Fuc(a1-2)Gal(b1-4)[Fuc(a1-3)]GlcNAc(b1-3)Gal(b1-4)[Fuc(a1-3)]GlcNAc
# Summary of the method: as §1
# [11] = biological target: Fuc(a1-2)Gal(b1-4)[Fuc(a1-3)]GlcNAc(b1-3)Gal(b1-4)[Fuc(a1-3)]GlcNAc(b1-3)Gal(b1-4)[Fuc(a1-3)]GlcNAc
# Summary of the method: as §1
# Fuc(a1-2)Gal6S(b1-4)Glc = biological target: Fuc(a1-2)Gal6S(b1-4)Glc
# Summary of the method: as §1
# [12] = biological target: Fuc(a1-2)Gal6S(b1-4)Glc6S
# Summary of the method: as §1
# [13] = biological target: Fuc(a1-2)Gal6S(b1-4)GlcNAc
# Summary of the method: as §1
# Fuc(a1-2)[Gal(a1-3)]Gal = biological target: Fuc(a1-2)[Gal(a1-3)]Gal
# Summary of the method: as §1
# [14] = biological target: Fuc(a1-2)[Gal(a1-3)]Gal(b1-3)GlcNAc
# Summary of the method: as §1
# [15] = biological target: Fuc(a1-2)[Gal(a1-3)]Gal(b1-4)Glc
# Summary of the method: as §1
# [16] = biological target: Fuc(a1-2)[Gal(a1-3)]Gal(b1-4)GlcNAc
# Summary of the method: as §1
# [17] = biological target: Fuc(a1-2)[Gal(a1-3)]Gal(b1-4)[Fuc(a1-3)]GlcNAc
# Summary of the method: as §1
# [18] = biological target: Fuc(a1-2)[Gal(a1-4)]Gal(b1-4)GlcNAc
# Summary of the method: as §1
# [19] = biological target: Fuc(a1-2)[GalNAc(a1-3)]Gal
# Summary of the method: as §1
# [20] = biological target: Fuc(a1-2)[GalNAc(a1-3)]Gal(b1-3)GlcNAc
# Summary of the method: as §1
# [21] = biological target: Fuc(a1-2)[GalNAc(a1-3)]Gal(b1-4)Glc
# Summary of the method: as §1
# [22] = biological target: Fuc(a1-2)[GalNAc(a1-3)]Gal(b1-4)GlcNAc
# Summary of the method: as §1
# [23] = biological target: Fuc(a1-2)[GalNAc(a1-3)]Gal(b1-4)[Fuc(a1-3)]GlcNAc
# Summary of the method: as §1
# [24] = biological target: Fuc(a1-2)[GalNAc(a1-4)]Gal(b1-4)GlcNAc
# Summary of the method: as §1
# [25] = biological target: Fuc(a1-2)[GalNAc(b1-3)]Gal
# Summary of the method: as §1
# Fuc(a1-3)GlcNAc = biological target: Fuc(a1-3)GlcNAc
# Summary of the method: as §1
# [26] = biological target: Fuc(a1-3)[Gal(b1-4)]Glc6S
# Summary of the method: as §1
# [27] = biological target: Fuc(a1-3)[Gal(b1-4)]GlcNAc
# Summary of the method: as §1
# [28] = biological target: Fuc(a1-3)[Gal(b1-4)]GlcNAc(b1-2)Man(a1-3)[Fuc(a1-3)[Gal(b1-4)]GlcNAc(b1-2)Man(a1-6)]Man(b1-4)GlcNAc(b1-4)GlcNAc
# Summary of the method: as §1
# [29] = biological target: Fuc(a1-3)[Gal(b1-4)]GlcNAc(b1-2)Man(a1-6)[Gal(b1-4)GlcNAc(b1-2)Man(a1-3)]Man(b1-4)GlcNAc(b1-4)GlcNAc
# Summary of the method: as §1
# [30] = biological target: Fuc(a1-3)[Gal(b1-4)]GlcNAc(b1-3)Gal(b1-3)[Fuc(a1-4)]GlcNAc
# Summary of the method: as §1
# [31] = biological target: Fuc(a1-3)[Gal(b1-4)]GlcNAc(b1-4)Gal(b1-4)[Fuc(a1-3)]GlcNAc
# Summary of the method: as §1
# [32] = biological target: Fuc(a1-3)[Gal(b1-4)]GlcNAc(b1-4)Gal(b1-4)[Fuc(a1-3)]GlcNAc(b1-4)Gal(b1-4)[Fuc(a1-3)]GlcNAc
# Summary of the method: as §1
# [33] = biological target: Fuc(a1-3)[Gal(b1-4)]GlcNAc6S
# Summary of the method: as §1
# [34] = biological target: Fuc(a1-3)[Gal3S(b1-4)]Glc6S
# Summary of the method: as §1
# [35] = biological target: Fuc(a1-3)[Gal3S(b1-4)]GlcNAc
# Summary of the method: as §1
# [36] = biological target: Fuc(a1-3)[Gal3S(b1-4)]GlcNAc6S
# Summary of the method: as §1
# [37] = biological target: Fuc(a1-3)[GalNAc(b1-4)]GlcNAc
# Summary of the method: as §1
# Fuc(a1-4)GlcNAc = biological target: Fuc(a1-4)GlcNAc
# Summary of the method: as §1
# Fuc(b1-3)GlcNAc = biological target: Fuc(b1-3)GlcNAc
# Summary of the method: as §1
# Gal(a1-2)Gal = biological target: Gal(a1-2)Gal
# Summary of the method: as §1
# Gal(a1-3)Gal = biological target: Gal(a1-3)Gal
# Summary of the method: as §1
# Gal(a1-3)Gal(b1-3)GlcNAc = biological target: Gal(a1-3)Gal(b1-3)GlcNAc
# Summary of the method: as §1
# Gal(a1-3)Gal(b1-4)Glc = biological target: Gal(a1-3)Gal(b1-4)Glc
# Summary of the method: as §1
# Gal(a1-3)Gal(b1-4)GlcNAc = biological target: Gal(a1-3)Gal(b1-4)GlcNAc
# Summary of the method: as §1
# [38] = biological target: Gal(a1-3)Gal(b1-4)[Fuc(a1-3)]GlcNAc
# Summary of the method: as §1
# Gal(a1-3)GalNAc = biological target: Gal(a1-3)GalNAc
# Summary of the method: as §1
# [39] = biological target: Gal(a1-3)[Gal(a1-4)]Gal(b1-4)GlcNAc
# Summary of the method: as §1
# Gal(a1-4)Gal(b1-4)Glc = biological target: Gal(a1-4)Gal(b1-4)Glc
# Summary of the method: as §1
# Gal(a1-4)Gal(b1-4)GlcNAc = biological target: Gal(a1-4)Gal(b1-4)GlcNAc
# Summary of the method: as §1
# Gal(a1-4)GlcNAc = biological target: Gal(a1-4)GlcNAc
# Summary of the method: as §1
# Gal(a1-6)Glc = biological target: Gal(a1-6)Glc
# Summary of the method: as §1
binder,measurement,setting,value
B1,glycan array binding signal (z-score),Fuc(a1-2)Gal,0.241
same,glycan array binding signal (z-score),Fuc(a1-2)Gal(b1-3)GalNAc,-0.189
same,glycan array binding signal (z-score),[1],-0.165
same,glycan array binding signal (z-score),[2],-0.148
same,glycan array binding signal (z-score),[3],0.03
same,glycan array binding signal (z-score),Fuc(a1-2)Gal(b1-3)GlcNAc,0.024
same,glycan array binding signal (z-score),[4],-0.14
same,glycan array binding signal (z-score),[5],-0.238
same,glycan array binding signal (z-score),Fuc(a1-2)Gal(b1-4)Glc,-0.318
same,glycan array binding signal (z-score),Fuc(a1-2)Gal(b1-4)Glc6S,0.257
same,glycan array binding signal (z-score),Fuc(a1-2)Gal(b1-4)GlcNAc,0.418
same,glycan array binding signal (z-score),[6],0.294
same,glycan array binding signal (z-score),[7],0.207
same,glycan array binding signal (z-score),[8],0.828
same,glycan array binding signal (z-score),[9],-0.182
same,glycan array binding signal (z-score),[10],-0.368
same,glycan array binding signal (z-score),[11],-0.266
same,glycan array binding signal (z-score),Fuc(a1-2)Gal6S(b1-4)Glc,-0.201
same,glycan array binding signal (z-score),[12],-0.249
same,glycan array binding signal (z-score),[13],-0.244
same,glycan array binding signal (z-score),Fuc(a1-2)[Gal(a1-3)]Gal,0.352
same,glycan array binding signal (z-score),[14],-0.203
same,glycan array binding signal (z-score),[15],-0.022
same,glycan array binding signal (z-score),[16],-0.341
same,glycan array binding signal (z-score),[17],-0.36
same,glycan array binding signal (z-score),[18],-0.297
same,glycan array binding signal (z-score),[19],-0.21
same,glycan array binding signal (z-score),[20],-0.115
same,glycan array binding signal (z-score),[21],-0.119
same,glycan array binding signal (z-score),[22],-0.032
same,glycan array binding signal (z-score),[23],-0.146
same,glycan array binding signal (z-score),[24],-0.142
same,glycan array binding signal (z-score),[25],0.726
same,glycan array binding signal (z-score),Fuc(a1-3)GlcNAc,-0.3
same,glycan array binding signal (z-score),[26],0.201
same,glycan array binding signal (z-score),[27],0.182
same,glycan array binding signal (z-score),[28],-0.379
same,glycan array binding signal (z-score),[29],0.296
same,glycan array binding signal (z-score),[30],-0.04
same,glycan array binding signal (z-score),[31],-0.642
same,glycan array binding signal (z-score),[32],-0.226
same,glycan array binding signal (z-score),[33],-0.249
same,glycan array binding signal (z-score),[34],0.52
same,glycan array binding signal (z-score),[35],-0.204
same,glycan array binding signal (z-score),[36],1.05
same,glycan array binding signal (z-score),[37],-0.371
same,glycan array binding signal (z-score),Fuc(a1-4)GlcNAc,-0.259
same,glycan array binding signal (z-score),Fuc(b1-3)GlcNAc,-0.339
same,glycan array binding signal (z-score),Gal(a1-2)Gal,-0.233
same,glycan array binding signal (z-score),Gal(a1-3)Gal,-0.174
same,glycan array binding signal (z-score),Gal(a1-3)Gal(b1-3)GlcNAc,-0.292
same,glycan array binding signal (z-score),Gal(a1-3)Gal(b1-4)Glc,-0.084
same,glycan array binding signal (z-score),Gal(a1-3)Gal(b1-4)GlcNAc,-0.415
same,glycan array binding signal (z-score),[38],-0.261
same,glycan array binding signal (z-score),Gal(a1-3)GalNAc,-0.143
same,glycan array binding signal (z-score),[39],-0.042
same,glycan array binding signal (z-score),Gal(a1-4)Gal(b1-4)Glc,0.336
same,glycan array binding signal (z-score),Gal(a1-4)Gal(b1-4)GlcNAc,0.39
same,glycan array binding signal (z-score),Gal(a1-4)GlcNAc,0.002
same,glycan array binding signal (z-score),Gal(a1-6)Glc,-0.135
